# Assay results published in the supplement of paper PMC8728848.
# The other results are listed elsewhere or left out.
# What was measured:
# Test in all cases: glycan array binding signal (z-score within array); higher = stronger binding
# Settings in all cases: glycan notation: IUPAC condensed, linker removed
# Fuc(a1-3)GlcNAc = biological target: Fuc(a1-3)GlcNAc
# Procedure, shortened: (§1)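 The binding signal is a Z-score computed within each array. Data were drawn from 3228 arrays in the Consortium for Functional Glycomics database, restricted to those with a known protein sequence. Scores were averaged over arrays of the same protein sequence at different concentrations or buffers, and over linkers, and negative values can be taken as non-binding.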
# [1] = biological target: Fuc(a1-3)[Gal(b1-4)]Glc6S
# Procedure, shortened: as §1
# [2] = biological target: Fuc(a1-3)[Gal(b1-4)]GlcNAc
# Procedure, shortened: as §1
# [3] = biological target: Fuc(a1-3)[Gal(b1-4)]GlcNAc(b1-2)Man
# Procedure, shortened: as §1
# [4] = biological target: Fuc(a1-3)[Gal(b1-4)]GlcNAc(b1-2)Man(a1-3)[Fuc(a1-3)[Gal(b1-4)]GlcNAc(b1-2)Man(a1-6)]Man(b1-4)GlcNAc(b1-4)GlcNAc
# Procedure, shortened: as §1
# [5] = biological target: Fuc(a1-3)[Gal(b1-4)]GlcNAc(b1-2)Man(a1-3)[Fuc(a1-3)[Gal(b1-4)]GlcNAc(b1-2)Man(a1-6)]Man(b1-4)GlcNAc(b1-4)[Fuc(a1-6)]GlcNAc
# Procedure, shortened: as §1
# [6] = biological target: Fuc(a1-3)[Gal(b1-4)]GlcNAc(b1-3)Gal(b1-3)[Fuc(a1-4)]GlcNAc
# Procedure, shortened: as §1
# [7] = biological target: Fuc(a1-3)[Gal(b1-4)]GlcNAc(b1-3)Gal(b1-4)[Fuc(a1-3)]GlcNAc
# Procedure, shortened: as §1
# [8] = biological target: Fuc(a1-3)[Gal(b1-4)]GlcNAc(b1-3)Gal(b1-4)[Fuc(a1-3)]GlcNAc(b1-3)Gal(b1-4)[Fuc(a1-3)]GlcNAc
# Procedure, shortened: as §1
# [9] = biological target: Fuc(a1-3)[Gal(b1-4)]GlcNAc(b1-3)GalNAc
# Procedure, shortened: as §1
# [10] = biological target: Fuc(a1-3)[Gal(b1-4)]GlcNAc(b1-6)GalNAc
# Procedure, shortened: as §1
# [11] = biological target: Fuc(a1-3)[Gal(b1-4)]GlcNAc(b1-6)[Gal(b1-3)GlcNAc(b1-3)]Gal(b1-4)Glc
# Procedure, shortened: as §1
# [12] = biological target: Fuc(a1-3)[Gal(b1-4)]GlcNAc6S
# Procedure, shortened: as §1
# [13] = biological target: Fuc(a1-3)[Gal3S(b1-4)]Glc
# Procedure, shortened: as §1
# [14] = biological target: Fuc(a1-3)[Gal3S(b1-4)]GlcNAc
# Procedure, shortened: as §1
# [15] = biological target: Fuc(a1-3)[Gal3S(b1-4)]GlcNAc6S
# Procedure, shortened: as §1
# [16] = biological target: Fuc(a1-3)[GalNAc(b1-4)]GlcNAc
# Procedure, shortened: as §1
# [17] = biological target: Fuc(a1-3)[GalNAc(b1-4)]GlcNAc6S
# Procedure, shortened: as §1
# Fuc(a1-4)GlcNAc = biological target: Fuc(a1-4)GlcNAc
# Procedure, shortened: as §1
# Fuc(b1-3)GlcNAc = biological target: Fuc(b1-3)GlcNAc
# Procedure, shortened: as §1
# Gal(a1-2)Gal = biological target: Gal(a1-2)Gal
# Procedure, shortened: as §1
# Gal(a1-3)Gal = biological target: Gal(a1-3)Gal
# Procedure, shortened: as §1
# Gal(a1-3)Gal(b1-3)GlcNAc = biological target: Gal(a1-3)Gal(b1-3)GlcNAc
# Procedure, shortened: as §1
# [18] = biological target: Gal(a1-3)Gal(b1-3)GlcNAc(b1-2)Man
# Procedure, shortened: as §1
# [19] = biological target: Gal(a1-3)Gal(b1-3)GlcNAc(b1-2)Man(a1-3)[Gal(a1-3)Gal(b1-3)GlcNAc(b1-2)Man(a1-6)]Man(b1-4)GlcNAc(b1-4)GlcNAc
# Procedure, shortened: as §1
# [20] = biological target: Gal(a1-3)Gal(b1-3)GlcNAc(b1-3)GalNAc
# Procedure, shortened: as §1
# [21] = biological target: Gal(a1-3)Gal(b1-3)GlcNAc(b1-6)GalNAc
# Procedure, shortened: as §1
# [22] = biological target: Gal(a1-3)Gal(b1-3)[Fuc(a1-4)]GlcNAc(b1-2)Man(a1-3)[Gal(a1-3)Gal(b1-3)[Fuc(a1-4)]GlcNAc(b1-2)Man(a1-6)]Man(b1-4)GlcNAc(b1-4)GlcNAc
# Procedure, shortened: as §1
# Gal(a1-3)Gal(b1-4)Glc = biological target: Gal(a1-3)Gal(b1-4)Glc
# Procedure, shortened: as §1
# Gal(a1-3)Gal(b1-4)GlcNAc = biological target: Gal(a1-3)Gal(b1-4)GlcNAc
# Procedure, shortened: as §1
# [23] = biological target: Gal(a1-3)Gal(b1-4)GlcNAc(b1-2)Man
# Procedure, shortened: as §1
# [24] = biological target: Gal(a1-3)Gal(b1-4)GlcNAc(b1-2)Man(a1-3)[Gal(a1-3)Gal(b1-4)GlcNAc(b1-2)Man(a1-6)]Man(b1-4)GlcNAc(b1-4)GlcNAc
# Procedure, shortened: as §1
# [25] = biological target: Gal(a1-3)Gal(b1-4)GlcNAc(b1-3)GalNAc
# Procedure, shortened: as §1
# [26] = biological target: Gal(a1-3)Gal(b1-4)GlcNAc(b1-6)GalNAc
# Procedure, shortened: as §1
# [27] = biological target: Gal(a1-3)Gal(b1-4)[Fuc(a1-3)]GlcNAc
# Procedure, shortened: as §1
# [28] = biological target: Gal(a1-3)Gal(b1-4)[Fuc(a1-3)]GlcNAc(b1-2)Man(a1-3)[Gal(a1-3)Gal(b1-4)[Fuc(a1-3)]GlcNAc(b1-2)Man(a1-6)]Man(b1-4)GlcNAc(b1-4)GlcNAc
# Procedure, shortened: as §1
# Gal(a1-3)GalNAc = biological target: Gal(a1-3)GalNAc
# Procedure, shortened: as §1
# [29] = biological target: Gal(a1-3)[Gal(a1-4)]Gal(b1-4)GlcNAc
# Procedure, shortened: as §1
# [30] = biological target: Gal(a1-4)Gal(b1-3)GlcNAc(b1-2)Man(a1-3)[Gal(a1-4)Gal(b1-3)GlcNAc(b1-2)Man(a1-6)]Man(b1-4)GlcNAc(b1-4)GlcNAc
# Procedure, shortened: as §1
# Gal(a1-4)Gal(b1-4)Glc = biological target: Gal(a1-4)Gal(b1-4)Glc
# Procedure, shortened: as §1
# Gal(a1-4)Gal(b1-4)GlcNAc = biological target: Gal(a1-4)Gal(b1-4)GlcNAc
# Procedure, shortened: as §1
# [31] = biological target: Gal(a1-4)Gal(b1-4)GlcNAc(b1-2)Man(a1-3)[Gal(a1-4)Gal(b1-4)GlcNAc(b1-2)Man(a1-6)]Man(b1-4)GlcNAc(b1-4)GlcNAc
# Procedure, shortened: as §1
# [32] = biological target: Gal(a1-4)Gal(b1-4)GlcNAc(b1-3)Gal(b1-4)Glc
# Procedure, shortened: as §1
# Gal(a1-4)GlcNAc = biological target: Gal(a1-4)GlcNAc
# Procedure, shortened: as §1
# Gal(a1-6)Glc = biological target: Gal(a1-6)Glc
# Procedure, shortened: as §1
binder,measurement,setting,value
LngA (Escherichia coli) (protein) MLSVYNRTQKFKAEARKKIAKYHELRKQRGMSLLEVIIVLGIIGTIAAGVVILAQRAFDSRAVTDLVTNTNTVRVRMKDAYQRDGKYPDFVDPLSLTANTIKTDTSGIPAAQLVQLGKITPDEVRNNISGDFIAIGGALTSNGAQVKKGFAIELNGLSQEQCRSILGQVGNNWEYVAIGTSASGSYAMTATGVDMSVAASTTVLRSLGNNGQTTLTADKILSTCTAQVNSITLGSR,glycan array binding signal (z-score),Fuc(a1-3)GlcNAc,-0.418
same,glycan array binding signal (z-score),[1],1.11
same,glycan array binding signal (z-score),[2],-0.135
same,glycan array binding signal (z-score),[3],-0.088
same,glycan array binding signal (z-score),[4],-0.119
same,glycan array binding signal (z-score),[5],-0.064
same,glycan array binding signal (z-score),[6],-0.463
same,glycan array binding signal (z-score),[7],-0.277
same,glycan array binding signal (z-score),[8],-0.344
same,glycan array binding signal (z-score),[9],-0.267
same,glycan array binding signal (z-score),[10],-0.182
same,glycan array binding signal (z-score),[11],-0.392
same,glycan array binding signal (z-score),[12],-0.188
same,glycan array binding signal (z-score),[13],-0.365
same,glycan array binding signal (z-score),[14],0.116
same,glycan array binding signal (z-score),[15],-0.137
same,glycan array binding signal (z-score),[16],0.135
same,glycan array binding signal (z-score),[17],-0.265
same,glycan array binding signal (z-score),Fuc(a1-4)GlcNAc,-0.404
same,glycan array binding signal (z-score),Fuc(b1-3)GlcNAc,-0.322
same,glycan array binding signal (z-score),Gal(a1-2)Gal,0.247
same,glycan array binding signal (z-score),Gal(a1-3)Gal,-0.397
same,glycan array binding signal (z-score),Gal(a1-3)Gal(b1-3)GlcNAc,2.92
same,glycan array binding signal (z-score),[18],-0.379
same,glycan array binding signal (z-score),[19],1.17
same,glycan array binding signal (z-score),[20],-0.134
same,glycan array binding signal (z-score),[21],-0.419
same,glycan array binding signal (z-score),[22],0.951
same,glycan array binding signal (z-score),Gal(a1-3)Gal(b1-4)Glc,-0.144
same,glycan array binding signal (z-score),Gal(a1-3)Gal(b1-4)GlcNAc,-0.412
same,glycan array binding signal (z-score),[23],-0.312
same,glycan array binding signal (z-score),[24],-0.212
same,glycan array binding signal (z-score),[25],-0.423
same,glycan array binding signal (z-score),[26],-0.376
same,glycan array binding signal (z-score),[27],-0.594
same,glycan array binding signal (z-score),[28],1.36
same,glycan array binding signal (z-score),Gal(a1-3)GalNAc,-0.397
same,glycan array binding signal (z-score),[29],-0.228
same,glycan array binding signal (z-score),[30],-0.213
same,glycan array binding signal (z-score),Gal(a1-4)Gal(b1-4)Glc,-0.089
same,glycan array binding signal (z-score),Gal(a1-4)Gal(b1-4)GlcNAc,-0.233
same,glycan array binding signal (z-score),[31],-0.463
same,glycan array binding signal (z-score),[32],-0.482
same,glycan array binding signal (z-score),Gal(a1-4)GlcNAc,-0.206
same,glycan array binding signal (z-score),Gal(a1-6)Glc,0.061
